Consider 10 molecules from the supplement of paper PMC4604168 (melanoma cell lines).

The other results are listed elsewhere or left out. Most values come without repeats; read them as rough.

Some test systems named below: WM115; WM1716; WM1745; WM3526; WM3619; WM451Lu.
What all share (experiment): cell count relative to DMSO control; melanoma cells; higher = more viable cells
What all share (conditions): library dose: low library concentration; 72 h
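Further: cell number obtained by counting DAPI-stained nuclei in high-throughput microscope images with image analysis software, screen run in 1,536-well plates.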

Take `CC1(C)CCC(c2ccc(Cl)cc2)=C(CN2CCN(c3ccc(C(=O)NS(=O)(=O)c4ccc(N[C@H](CCN5CCOCC5)CSc5ccccc5)c(S(=O)(=O)C(F)(F)F)c4)cc3)CC2)C1` + Cc1cn(-c2cc(NC(=O)c3ccc(C)c(Nc4nccc(-c5cccnc5)n4)c3)cc(C(F)(F)F)c2)cn1 [nilotinib] (first compound 0.4 µM, partner dose 0.2 µM): the cell count amounted to 84.8% in the experiment with WM115; 82.4% in the experiment on WM1716; 13.7% in the experiment on WM1745; 88.8% in the experiment on WM3526; 81.1% in the experiment with WM3619; 83.9% in the experiment on WM451Lu.

For the molecule `CC1(C)CCC(c2ccc(Cl)cc2)=C(CN2CCN(c3ccc(C(=O)NS(=O)(=O)c4ccc(N[C@H](CCN5CCOCC5)CSc5ccccc5)c(S(=O)(=O)C(F)(F)F)c4)cc3)CC2)C1` + Nc1ncn([C@H]2C[C@H](O)[C@@H](CO)O2)c(=O)n1 [decitabine] (first compound 0.4 µM, partner dose 0.1 µM), the cell count in the experiment with WM115 was 60.1%; with WM1716 it was 56.6%; in the experiment with WM1745, 10.3%; in the experiment with WM3526 it was 83.2%; in the experiment with WM3619 it was 73.8%; with WM451Lu, 91.1%.

With `O=C(/C=C/c1cccnc1)NCCCCC1CCN(C(=O)c2ccccc2)CC1` + Cn1cc(/C=C2\C(=O)Nc3cccnc32)c2ccccc21 [GW441756] (first compound 0.01 µM, partner dose 0.4 µM), the cell count stood at 84.8% in the experiment on WM115; 119% with WM1716; 87.2% with WM1745; 102% with WM3526; 91.8% with WM3619; 104% with WM451Lu.

`Cc1ccc(Nc2nccc(N(C)c3ccc4c(C)n(C)nc4c3)n2)cc1S(N)(=O)=O` [Pazopanib] + Cn1cncc1[C@@](N)(c1ccc(Cl)cc1)c1ccc2c(c1)c(-c1cccc(Cl)c1)cc(=O)n2C [tipifarnib] (first compound 0.4 µM, partner dose 0.01 µM): the cell count in the experiment with WM115 stood at 97.3%; with WM1716, 83.5%; in the experiment with WM1745, 91%; with WM3526 it was 93.5%; with WM3619 it was 97.5%; in the experiment with WM451Lu it was 104%.

On to `CC1(C)CCC(c2ccc(Cl)cc2)=C(CN2CCN(c3ccc(C(=O)NS(=O)(=O)c4ccc(N[C@H](CCN5CCOCC5)CSc5ccccc5)c(S(=O)(=O)C(F)(F)F)c4)cc3)CC2)C1` + CCN(CC)CCNC(=O)c1c(C)[nH]c(/C=C2\C(=O)Nc3ccc(F)cc32)c1C [sunitinib] (first compound 0.4 µM, partner dose 0.4 µM), for which the cell count is 76.1% with WM115; 97.6% in the experiment on WM1716; 8.95% in the experiment on WM1745; 117% with WM3526; 130% with WM3619; 85.5% with WM451Lu.

Regarding `Cc1ccc(Nc2nccc(N(C)c3ccc4c(C)n(C)nc4c3)n2)cc1S(N)(=O)=O` [Pazopanib] + Nc1ncn([C@H]2C[C@H](O)[C@@H](CO)O2)c(=O)n1 [decitabine] (first compound 0.4 µM, partner dose 0.1 µM), the cell count with WM115 came to 92.1%; with WM1716 it was 70.4%; with WM1745 it was 103%; in the experiment on WM3526, 83.1%; in the experiment on WM3619, 88.8%; in the experiment on WM451Lu it was 72.7%.

With `CC1(C)CCC(c2ccc(Cl)cc2)=C(CN2CCN(c3ccc(C(=O)NS(=O)(=O)c4ccc(N[C@H](CCN5CCOCC5)CSc5ccccc5)c(S(=O)(=O)C(F)(F)F)c4)cc3)CC2)C1` + Clc1ccc(Nc2nnc(Cc3ccncc3)c3ccccc23)cc1 [vatalanib] (first compound 0.4 µM, partner dose 2 µM), the cell count was 71.2% in the experiment with WM115; 71.2% in the experiment on WM1716; 7.98% in the experiment with WM1745; 74.7% with WM3526; 75.6% in the experiment on WM3619; 64.7% with WM451Lu.

Turning to `CC1(C)CCC(c2ccc(Cl)cc2)=C(CN2CCN(c3ccc(C(=O)NS(=O)(=O)c4ccc(N[C@H](CCN5CCOCC5)CSc5ccccc5)c(S(=O)(=O)C(F)(F)F)c4)cc3)CC2)C1` + c1cc(-c2cnn3cc(-c4ccc(OCCN5CCCCC5)cc4)cnc23)ccn1 [Dorsomorphin] (first compound 0.4 µM, partner dose 0.4 µM), the cell count stood at 81.5% in the experiment with WM115; 74.5% in the experiment with WM1716; 10.7% with WM1745; 82.7% in the experiment on WM3526; 88% in the experiment with WM3619; 82.8% in the experiment on WM451Lu.

Consider `Cc1ccc(Nc2nccc(N(C)c3ccc4c(C)n(C)nc4c3)n2)cc1S(N)(=O)=O` [Pazopanib] + CC(C)(C)c1cnc(CSc2cnc(NC(=O)C3CCNCC3)s2)o1 [SNS-032] (first compound 0.4 µM, partner dose 0.01 µM), for which the cell count in the experiment with WM115 was determined as 114%; in the experiment with WM1716, 80.9%; in the experiment on WM1745 it was 95.5%; in the experiment with WM3526, 95.1%; in the experiment on WM3619, 99.2%; in the experiment on WM451Lu, 136%.

Consider `CC1(C)CCC(c2ccc(Cl)cc2)=C(CN2CCN(c3ccc(C(=O)NS(=O)(=O)c4ccc(N[C@H](CCN5CCOCC5)CSc5ccccc5)c(S(=O)(=O)C(F)(F)F)c4)cc3)CC2)C1` + COc1ccc2c(c1)CCC1C2CCC2(C)C(NCCCCCCN3C(=O)C=CC3=O)CCC12 [U73122] (first compound 0.4 µM, partner dose 0.4 µM), for which the cell count in the experiment with WM115 was 92.3%; in the experiment with WM1716 it was 67.3%; in the experiment on WM1745, 10.3%; in the experiment with WM3526, 68.4%; in the experiment with WM3619, 82.6%; in the experiment with WM451Lu, 70.8%.
